Residue numbers refer to the chain shown, from its start. The list shows a part of the results.

The labels stand for the following.
B1: AUGUCAG (DNA:RNA)
RNA: GGGAGACCGGAAUUCAGAUUGUCCAUGUCAGUUAAAUCCCGUCGUAGCCACCA
DNA 1: CAATCTGAATTCCGGTCTCCC
DNA 2: TGGTGGCTACGACGGGATT
B2: GUUUUAA (DNA:RNA)
RNA: B1 RNA with A25G, G27U, C29U, G31A
DNA 1: CAATCTGAATTCCGGTCTCCC
DNA 2: TGGTGGCTACGACGGGATT
B3: UAGCGGG (DNA:RNA)
RNA: B1 RNA with A25U, U26A, U28C, C29G, A30G
DNA 1: CAATCTGAATTCCGGTCTCCC
DNA 2: TGGTGGCTACGACGGGATT
B4: GCACGUA (DNA:RNA)
RNA: GGGAGACCGGAAUUCAGAUUGUCCGCACGUAUUAAAUCCCGUCGUAGCCACCA
DNA 1: CAATCTGAATTCCGGTCTCCC
DNA 2: TGGTGGCTACGACGGGATT
B5: GGGUAAC (DNA:RNA)
RNA: B1 RNA with A25G, U26G, C29A, G31C
DNA 1: CAATCTGAATTCCGGTCTCCC
DNA 2: TGGTGGCTACGACGGGATT
B6: AAUGACU (DNA:RNA)
RNA: B1 RNA with U26A, G27U, U28G, C29A, A30C, G31U
DNA 1: CAATCTGAATTCCGGTCTCCC
DNA 2: TGGTGGCTACGACGGGATT
B7: CCCCACG (DNA:RNA)
RNA: B4 RNA with G25C, A27C, G29A, U30C, A31G
DNA 1: CAATCTGAATTCCGGTCTCCC
DNA 2: TGGTGGCTACGACGGGATT
B8: GCUCUAU (DNA:RNA)
RNA: B4 RNA with A27U, G29U, U30A, A31U
DNA 1: CAATCTGAATTCCGGTCTCCC
DNA 2: TGGTGGCTACGACGGGATT
B9: AUAGUAG (DNA:RNA)
RNA: B1 RNA with G27A, U28G, C29U
DNA 1: CAATCTGAATTCCGGTCTCCC
DNA 2: TGGTGGCTACGACGGGATT
B10: CUUACCA (DNA:RNA)
RNA: B1 RNA with A25C, G27U, U28A, A30C, G31A
DNA 1: CAATCTGAATTCCGGTCTCCC
DNA 2: TGGTGGCTACGACGGGATT
B11: UAACAGG (DNA:RNA)
RNA: B4 RNA with G25U, C26A, G29A, U30G, A31G
DNA 1: CAATCTGAATTCCGGTCTCCC
DNA 2: TGGTGGCTACGACGGGATT
B12: AAGCAAC (DNA:RNA)
RNA: B1 RNA with U26A, U28C, C29A, G31C
DNA 1: CAATCTGAATTCCGGTCTCCC
DNA 2: TGGTGGCTACGACGGGATT
B13: AGUGCUU (DNA:RNA)
RNA: B1 RNA with U26G, G27U, U28G, A30U, G31U
DNA 1: CAATCTGAATTCCGGTCTCCC
DNA 2: TGGTGGCTACGACGGGATT
B14: UCAAACC (DNA:RNA)
RNA: B4 RNA with G25U, C28A, G29A, U30C, A31C
DNA 1: CAATCTGAATTCCGGTCTCCC
DNA 2: TGGTGGCTACGACGGGATT
B15: GGAAUUA (DNA:RNA)
RNA: B4 RNA with C26G, C28A, G29U
DNA 1: CAATCTGAATTCCGGTCTCCC
DNA 2: TGGTGGCTACGACGGGATT
B16: CACUGAC (DNA:RNA)
RNA: B1 RNA with A25C, U26A, G27C, C29G, G31C
DNA 1: CAATCTGAATTCCGGTCTCCC
DNA 2: TGGTGGCTACGACGGGATT
B17: GAAAAAU (DNA:RNA)
RNA: B4 RNA with C26A, C28A, G29A, U30A, A31U
DNA 1: CAATCTGAATTCCGGTCTCCC
DNA 2: TGGTGGCTACGACGGGATT
B18: GCCUGAA (DNA:RNA)
RNA: B4 RNA with A27C, C28U, U30A
DNA 1: CAATCTGAATTCCGGTCTCCC
DNA 2: TGGTGGCTACGACGGGATT
B19: CAUGCGA (DNA:RNA)
RNA: B1 RNA with A25C, U26A, G27U, U28G, A30G, G31A
DNA 1: CAATCTGAATTCCGGTCTCCC
DNA 2: TGGTGGCTACGACGGGATT
B20: UAGGGGU (DNA:RNA)
RNA: B1 RNA with A25U, U26A, U28G, C29G, A30G, G31U
DNA 1: CAATCTGAATTCCGGTCTCCC
DNA 2: TGGTGGCTACGACGGGATT

The assay deals with T1, RBFOX1 RRM RbFoxmut (Fox-RRM*) (Homo sapiens, UniProt Q9NWB1 109-208, R118D;E147R;N151S;E152T).
T1 sequence: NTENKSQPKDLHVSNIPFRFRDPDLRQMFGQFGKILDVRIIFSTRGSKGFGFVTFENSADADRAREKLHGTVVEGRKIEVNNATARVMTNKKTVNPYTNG
Briefly: EMSA; HiTS-Eq, 1 nM pool, 10 min; buffer printed only for the single-RNA assays: 10 mM Tris pH 7.5, 150 mM NaCl, 3.4 mM EDTA, 0.001% NP-40, 30 C. To be noted: tags: His6 N-terminal (pET28a); label: 5' 32P. The method, boiled down: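 A pool of RNA with 7 randomized nucleotides, 5′-radiolabelled and with DNA-annealed flanks, was equilibrated at 1 nM for 10 min in 50 µL with purified RbFox RRM, wild type or mutant, across increasing protein concentrations. Free RNA was separated by 8% native PAGE, excised, reverse-transcribed, barcoded by PCR and sequenced. Relative association constants were obtained from read-count changes of each RNA species versus the control reaction and normalised to the cognate motif.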
Background: Mobility shift assays separate free from complexed probe on a gel.
Regarding B1, the binding signal is 0.129 KA relative to UGCAUGU. With B2, the binding signal is 0.131 KA relative to UGCAUGU. Take B3: the binding signal is 0.0899 KA relative to UGCAUGU. For B4 the value was 0.382 KA relative to UGCAUGU; for B5, 0.0754 KA relative to UGCAUGU.

Turning to B6, the binding signal is 0.0625 KA relative to UGCAUGU. Then B7, with 0.107 KA relative to UGCAUGU; and B8, with 0.0876 KA relative to UGCAUGU.

Consider B9, for which the binding signal is 0.173 KA relative to UGCAUGU. In the case of B10, the binding signal is 0.0834 KA relative to UGCAUGU. As to B11, the binding signal was 0.0922 KA relative to UGCAUGU. As for B12, the binding signal is 0.0901 KA relative to UGCAUGU. Take B13: the binding signal is 0.102 KA relative to UGCAUGU. Regarding B14, the binding signal is 0.0724 KA relative to UGCAUGU. Consider B15, for which the binding signal was 0.107 KA relative to UGCAUGU. Then B16, with 0.102 KA relative to UGCAUGU; and B17, with 0.0727 KA relative to UGCAUGU; and B18, with 0.115 KA relative to UGCAUGU.

As for B19, the binding signal was 0.0765 KA relative to UGCAUGU. As to B20, the binding signal is 0.128 KA relative to UGCAUGU.

The record behind these values is publication PMC9911399, “Two distinct binding modes provide the RNA-binding protein RbFox with extraordinary sequence specificity”.
